In all, about 360,000 compounds went through this assay and about 11,000 (3.1%) were called active. The shares of active, inactive and inconclusive entries below differ from those in the screen. The call rests on the fitted dose curve; in most records, active means well fitted inhibition curve with a large enough effect; inconclusive means small, poorly fitted or top-dose-only effect; inactive means no such curve, though single readings can be large or run the other way. No potency is given beside an inconclusive call; the fits are too rough.
What follows are molecules tested against Schistosoma mansoni thioredoxin glutathione reductase (TGR) (UniProt Q962Y6) (assay: qHTS Assay for the Inhibitors of Schistosoma Mansoni Peroxiredoxins). Conditions: purified TGR, DTNB reduction, TNB absorbance 405 nm; activity change, negative = inhibition: at 114 µM (top of the series) unless noted.
Method in brief: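 First, TGR (20 nM dispensed) and NADPH were mixed with compound. Second, a 15 min room-temperature incubation followed. Third, further NADPH and then DTNB were added to start the reaction. Finally, TNB absorbance was monitored kinetically.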
Further: nearly all actives have a fitted effect of over 60% in size.
On the % scale 0 is the no-effect control and ±100 the full control effect; potency means the concentration at half of the fitted maximal effect; tags describe the fitted curve by direction and shape.

Compound | Potency | activity change, negative = inhibition
O=C(COC(=O)c1ccc([N+](=O)[O-])s1)NC(=O)NCc1ccccc1 | inconclusive [inhibitor, partial curve] | –
Cc1ccc(N(Cc2cc(=O)[nH]c3ccccc23)C(=O)CCl)cc1 | active: 3.16 µM | –
CCn1cc2c(n1)-c1c(oc(C(=O)Nc3cccc(C(F)(F)F)c3)c1C)CC2 | – | inactive: 5.6%
N#C/C(=C\c1cc([N+](=O)[O-])ccc1Cl)C(N)=O | inconclusive [inhibitor, full curve, poor fit] | –
Cc1csc(NC(=O)CCN2C(=O)c3ccccc3S2(=O)=O)n1 | – | inactive: -13.1%
CCc1cccc(C)c1NC(=S)N(CCN(C)C)Cc1cccs1 | inconclusive [inhibitor, single point] | –
CCCn1c(C(CO)Nc2nc(C)cs2)nc2ccccc21 (configuration not stated) | inconclusive [inhibitor, full curve] | –
O=C1/C(=C\c2ccncc2)SC(=S)N1C1CCCCC1 | – | inactive: -16.1%
O=C(Nc1ccccc1)c1ccc(S(=O)(=O)N2CCCC2)cc1 | inconclusive [inhibitor, full curve, poor fit] | –
CCN1CCN(CCCNC(=O)c2ccc3c(Cl)c4c(nc3c2)CCCC4)CC1 | inconclusive [inhibitor, single point] | –
N#C/C(=C(/O)CCl)c1nc2ccccc2[nH]1 | active: 25.1 µM | –
COc1ccc(C(C)=O)cc1COc1cccc2cccnc12 | inconclusive [inhibitor, partial curve] | –
CC[n+]1c(/C=C2/C=C(C)CC(C)C2)sc2ccccc21 (configuration not stated) | active: 39.8 µM | –
CCCCC(CC)C(=O)NCCCN1CCN(CCCNC(=O)C(CC)CCCC)CC1 (configuration not stated) | inconclusive [inhibitor, single point] | –
CCCCN(CC)CCNC(=O)C1CCCN(S(=O)(=O)c2cccc3nsnc23)C1 (configuration not stated) | inconclusive [inhibitor, partial curve] | –
COc1ccc(N(C(=O)/C=C\C(=O)Nc2ccc(C)cc2)C(C(=O)NCc2ccco2)c2ccc(C)cc2)cc1 (configuration not stated) | active: 44.7 µM | –
N#Cc1c(SCC(=O)Nc2cccc(C(F)(F)F)c2)sc2c(O)cc(=O)[nH]c12 | active: 31.6 µM | –
Cn1c(=O)c2c(-c3ccccc3)n(-n3cnnc3)cc2n(C)c1=O | inconclusive [inhibitor, full curve, poor fit] | –
Cc1ccc(C2=Nc3ccccc3N=C(C(Cl)Cl)C2)cc1 | active: 35.5 µM | –
CN(C)CCNc1oc(COc2ccc(Cl)cc2Cl)nc1C#N | inconclusive [inhibitor, full curve, poor fit] | –
c1coc(-c2nc3n(n2)C2(CCCCC2)[C@@H]2CCCC[C@@H]2N3)c1 | inconclusive [inhibitor, partial curve] | –
COC(=O)c1cc(OC)cc(O)c1C(=O)c1c(O)cc(C)cc1O | inconclusive [inhibitor, full curve] | –
CC(C)C(=O)N1CCN(c2nc(-c3ccc(Cl)cc3)cs2)CC1 | active: 31.6 µM | –
O=C(NCCc1ccc(Cl)cc1)C(=O)NCC(c1ccco1)S(=O)(=O)c1ccc(Cl)cc1 (configuration not stated) | active: 3.98 µM | –

Compound | Potency | activity change, negative = inhibition
CCc1c(C)[nH]c(C(=O)OCc2ccccc2)c1C | – | inactive: -2.92%
COc1ccc(/C=C/C(=O)NCCCN2CCCCCC2)cc1 | inconclusive [inhibitor, partial curve] | –
CC(=O)c1ccc(OC(=O)C2CC(=O)N(c3cccc(C)c3)C2)cc1 (configuration not stated) | inconclusive [inhibitor, partial curve] | –
CC/C(=N\NC(=O)c1ccccc1)c1c(O)n(Cc2ccccc2)c(=O)[nH]c1=O | inconclusive [inhibitor, partial curve] | –
Clc1ccc(CN2CCC(c3ccccc3)CC2)cc1 | – | inactive: 1.57%
C=CCn1c(SCc2csc(C)n2)nc2scc(-c3ccc(C)o3)c2c1=O | active: 7.94 µM | –
CCOC(=O)Cc1csc(NC(=O)CSc2nnc(C3CC3)n2C)n1 | – | inactive: -3.78%
NC(=O)c1c(NC(=O)CSc2nnc(-c3ccco3)n2-c2ccccc2)sc2c1CCC2 | active: 22.4 µM | –
CCOc1ccccc1N1CCN(c2nc(N)c(C#N)c(CC#N)c2C#N)CC1 | inconclusive [inhibitor, full curve, poor fit] | –
O=C1NC(=O)[C@]2(Cc3ccccc3N3CCN(c4ccccc4)CC32)C(=O)N1Cc1ccccc1 (some centres not stated) | inconclusive [inhibitor, partial curve] | –
CCc1cccc(C)c1NC(=O)COC(=O)Cn1c(C)csc1=O | – | inactive: -9.78%
O=C(Cc1cccs1)OCC(=O)c1ccco1 | active: 25.1 µM | –
O=C([C@H](Cc1ccccc1)NS(=O)(=O)c1ccc(Cl)cc1)N1CC[C@@]2(O)CCCC[C@H]2C1 | – | inactive: 3.74%
CCOc1ccc(NC(=O)c2ccc3[nH]c(=O)c(=O)[nH]c3c2)cc1 | – | inactive: -7.57%
COc1ccc(-c2nc(CS(=O)CC(=O)NCc3ccc(Cl)cc3)c(C)o2)cc1 (configuration not stated) | inconclusive [inhibitor, full curve] | –
O=C(NCc1ccco1)c1ccc(CS(=O)(=O)Cc2ccc(Cl)cc2)o1 | – | inactive: -26.6%
CCC1C/C(=C\c2cccnc2)C(=O)/C(=C/c2cccnc2)C1 (configuration not stated) | inconclusive [inhibitor, partial curve] | –
CN1C(=O)NC(c2ccccc2)C2=C1CN(CCc1ccccc1)C2=O (configuration not stated) | inconclusive [inhibitor, single point] | –
O=C(Nc1ccncc1)c1cn(-c2ccccc2)nc1-c1cccs1 | – | inactive: 10.7%
O=C(Nc1ccc(CSc2ccccc2)cc1)c1ccccc1 | – | inactive: -2.75%
COc1ccc(OCC(=O)N2CCCC2=O)c([N+](=O)[O-])c1 | inconclusive [inhibitor, partial curve, poor fit] | –
CC(=O)Nc1ccc(N=Cc2ccc(OCc3ccccc3)cc2)cc1 | – | inactive: 0.419%
CN(C)CCC(=O)N1c2ccccc2Sc2ccc(C(F)(F)F)cc21 | inconclusive [inhibitor, partial curve, poor fit] | –

Reference: PubChem BioAssay AID485364 (National Center for Advancing Translational Sciences (NCATS), 2010)
